Test results: the RNAGym collection of RNA variant scans (doi:10.1073/pnas.2313332121)
Variants at the floor of the assay are shown more often than the library holds them.

B1: TPR 5TU (parent)
chain: GGAUCUUCUCGAUCUAACAAAAAAGACAAAUCUGCCACAAAGCUUGAGAGCAUCUUCGGAUGCAGAGGCGGCAGCCUUCGGUGGCGCGAUAGCGCCAACGUUCUCAACUAUGACACGCAAAACGCGUGCUCCGUUGAAUGGAGUUUAUCAUG

Variants of: B1
Test: polymerase ribozyme fitness, log enrichment relative to wild type (log ratio); higher = more active; in vitro selection for triplet polymerase activity
How it was run: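 Mutant libraries were PCR-built and transcribed for each subunit of a heterodimeric triplet polymerase ribozyme and selected for one round in triplicate at −7 °C, frozen, before gel excision of extended constructs and streptavidin-bead capture. Input and output libraries were Illumina-sequenced, keeping genotypes with ≥10 input reads and ≥1 read per output. Fitness is a logarithmic ratio of genotype to wild-type enrichment, in base 2, using inverse-variance-weighted replicate averages.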

Polymerase ribozyme fitness (log ratio), ≤ -4.2:
A19G C27U C35A A115U A120G A138C U145A
A19G G74A C76U
A19U G25C U55A C57G C79G
A20C A23G C27U G59A U82C G92U C116U
A19C A37U A49C G68U C95A C149G
A19C C69A C76A A91G C114U C125A
A19C A24G U55C G65A A137G
A19C A21C G25U A39G G42C A66G C75G C79U C96U C123G
A19C C43U C72G C129G
A20G A26U A29C G48U U55G C76A U77G A150C
A19U C54A U90G A107C G117U U139G
A19U A26U C35U U82C G83A G124A G133U U139C G141U U151A
A19U A26U G42U G92U
A19U G70A C87U A107G U145G
A20G U45A G50U G81A C85U G133A
A19C U45G C75U G92U U127G
A20G A26C A41G A49C G88A A110C G136A
A20G C32A U33C U55G U56A G84U U101G C103U C105G G143A
A19G U77A
A20G A21C A23C C38U C51A U77G A97U
A19G A49C C103A C118G G141C A142G
A20C C63G A64G
A20G G34U C54G G141C
A19U A52U C57G G58A C95U C123U G126U A138U
A19U A73G U78A G86U U101A A150C
A19U A20U A52C U55A A60U C93A A107G U134A
A19C U45A C51A A107G A110C
A20C U33G C43A U45A C69U A119C
A19U U55A G94A A137U
A20C G48A C57A U61A G62A G117A
A19C A26C C32G C75A A106G U135G
A19U A28G G34A U55A C93A A122G G152U
A19C C27U U90G G128U A138G U144C
A19C A24G U33G A91C C99U G126U A142C
A20G A29G G50C U53A U56A U109G C125A G136A U144G
A20G A41C A47G U78C G133U U144C
A19G G25U U56A G84U A91G A138C G143C
A19U A30C C57A A73C G92A G112A
A19C G68U G84U G126A C131A
A20C A28U A39G C125A G126C
A19U U56A C85G G100U U146G
A19U A26U C75A U77G C95A A113U
A20G A30U U53A C54U G67C A110U
A19U U33G U56G
A19U U31G U135G U148G
A19C A91C
A20G A60C U61A G80A C125G
A20G C27G A47G A52G A60G U61A U90A A91G C93G C105G
A20G G59A G68C G94A G128C
A19U G74C A147C
A19C A28G U61A U102C
A19U G46A G50U C76U G80U G84A G126A
A19C A39C C43U G59U A64U G83C C105A C116U U144G
A20C U45A C93G
A19U U31A A39G A60U G68C A73G C95U C105A
A19C G25A U55A A113C
A19C A30U G42A C114G U139A G140U
A19C A47C G50A G70C G84C A150G
A19C A26C A37C A60G C95U
A20G G34U G48A G68A
A20G A21C C79G A121U
A19C U31C C38A C57A G59A A89G C95G A97G C103G
A19U U44C G74A G92C U102A C125U
A19U C57U G80A C93U G136A A138C A147C
A20C C36G G58A C69G U148A
A20C A28U U53C G67U G68C G92A A147C
A19G A21C C38A A39C C96U U145G
A19G A41C A47U G50C U53C C93A G128U
A19C A40C G80C C87A G88C G126U
A19U U45G A52U U53A C57U G68A C87G A106G G117A
A19U U55G G70A C76A U82A G92C
A19G A30U C32U A39C U45C U148A
A19G A22U C38U C79U G86U C118U G126A G141C
A20G C85G U90G
A19C U31C A52C G71C C96G G126U
A19U A24U U44A G84A C93A A121G C131U A142C
A20C A28G A37G C69U C96A A107U G140U
A19C C69G C72U U78G A119G C125U A137C G140C
A20C G68A C79U C85A A110G
A20C U33A U44A A49C G92U A97G U127A
A19G A52C C69A C87A C125G G143A U144A A150U
A19C A24G A26U A37C G94A U151C
A20C G59A G92U A97U U111C C114G
A19U C93U C99A G152U
A19U U31G G94A A113C G117U
A20C U44C U77G G94U
A19U A40G C99A G124C U146A
A20C A24U A52U C76U G80C C85G G86U C99A G100A
A19C A21U C43G G81U G94C A110G
A19C A39U A91U C103G C123A U130A U134G
A19U A39C G80A U82G A89G A110C
A19C A30G A49U A115U U145A
A20G A40U G74C C93A
A19G G65C C149A
A19C A21C A26C U44A C57A U61A G68A G86A G140U
A19C C76G G92U C103G A120U
A19U A21U G59A A60G C75U C87G C93U
A19C A49C C75A U82G U102G C118G G140C
A19C C85U A91G A110G A121U
A19U G34U A49C C54G C75A G86A U134G C149G
A19U U77A C118U C125G A138G A142U U148A
A19G A21U C75U C105G
A20G G46A G92U A107G C114A
A20C A49C G62C C85G A150G
A20C A28G G59U C85U C96G A121G
A19U A20C U33A A52G C118G G136A U151A
A19G A23U A26U G46A U55A C87A C105A G143C
A19C A41C U55A U56A C85A C87G A91U
A19U A20C A37G U55A U111A U127G
A20G G68U G124A
A19C A21U U90C C95U C116G C149A
A20C U55G A60G U90G C96A
A20G C51G G67C G83A C87A
A20C A52G G74A G84U C87A U90G A107C
A19U A39U C43U C79G C95U U130G
A19U G58C C87G
A19C C35A U61A C96A U144C
A19C A37C A49U A60C U61G C95U C96A G124U U134A G141C
A20G G140A U144G
A19G G46A G48A C69A C75U U78G C87G
A20C G34U A60C G83C C99G
A20C C35A G48A C114G
A19G A29G G59U A107G U109C C118U G141A
A20C A23U C27G C87U C95A
A20C A40U G86U C87G C105U G141U
A20G U44A A64C C76A G143C U144G
A19G A49U G70A U148G
A20G A21U C93G A97U C116U
A19G G34U G50A C75U U146C A150U
A19C G68C C87A
A19G G58U G62A C96G C108G U151A
A20G A21U G42A G83A A91U U101G C125A
A20C C79G U127G U145A
A19G A26G A91U C93A A107C
A20C A23G G81A C93A U104A A119C
A20C A30U G80A G83C C87U C108A
A19U A29U C57U G84A C96G A107U
A20C C54U U78A C93A A97U
A20C C43A U61C C87U A150C
A19U U31A G50A C75U C93U U151G
A19U G65A C93A U148C
A20G C76A G81A C87G C118A A138G
A19U G42C C79A C116U G126A C132G
A19U A28U G42C G74A C85U U148C U151A G152U
A19C A28U G84A A97C
A19U G92U G94C G143A U145A
A19C A40G C87G
A19G A40U G65C G136C A142G
A19G A21U A26C C79U G83C C99A C123U
A19U G42A G67A C85G U109A A120G
A19C A52G C54A G68C C75A C85U C96A A122U A147C
A19G C27U A41U G112C G117A A120G G136C
A19U U33A C51A G143C C149G
A19U A29G U53C G58A U102A A107G C149U
A20C A91C C95G C96G U148G
A20U A26C C35A C57A U61A A91U
A20C G42A U56A G83A
A20U A21G G74A C79U C85A
A20C A22G C35U G42A C85U G88A C105U A120G
A19C C27A G92A G112U A122U G128U U130A C149A
A20G A21C A49C U56A A64C C76A C85G U102G U151A
A19U A40U G58C G68A C87A U104G G136A G143U U151G G152A
A20G A24G C87U A120G U135A
A19G C75G C125U U127G
A20G G25C G42C G71U C75A G80A C103G A106U C108A
A20C C85U U151A
A20C C36U G48U C57G A107G A113G C125A
